Reference: PubChem BioAssay AID588855 (National Center for Advancing Translational Sciences (NCATS), 2011)
The campaign covered roughly 410,000 compounds. About 5,000 (1.2%) were called active. Inconclusive results, whose numbers are uncertain, are shown with a selection of clear calls. The call rests on the fitted dose curve; in most records, active means well fitted inhibition curve with a large enough effect; inconclusive means small, poorly fitted or top-dose-only effect; inactive means no such curve, though single readings can be large or run the other way. Potencies of inconclusive entries are doubtful fits and often do not repeat.
On the % scale 0 is the no-effect control and ±100 the full control effect; potency means the concentration at half of the fitted maximal effect; tags describe the fitted curve by direction and shape.

Experiment: qHTS for Inhibitors of TGF-b; further: nearly all actives have a fitted effect of over 65% in size
Settings: HepG2 CAGA-GFP TGF-b/SMAD3 reporter, GFP fluorescence, 18 h, TGF-beta stimulated, 500 pg/mL final; series mostly up to 46.1 µM; activity, negative = inhibition: at the top concentration
How it was run: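 Per well, imaged GFP fluorescence of HEPG2 CAGA-GFP cells gives the signal; cells get compound, then TGF-beta (500 pg/mL final), 18 h at 37 degrees C; %Activity versus -TGF-beta and +DMSO controls.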
For `CS(=O)(=O)N1CCN(c2ccc(NC(=O)c3cc4ccccc4o3)cc2)CC1`, the “activity, negative = inhibition” value was inactive: -7.4%. For `Cc1cc(N2CCOCC2)nc2ccc(NC(=S)NC(C)C)cc12`, the “activity, negative = inhibition” value was inactive: 19.7%. For `O=C(Nc1ccc(S(=O)(=O)N2CCOCC2)cc1)c1cccc([N+](=O)[O-])c1`, the “activity, negative = inhibition” value was inactive: -9.87%. With `Fc1cc(F)c2nc(N3CCCCC3)sc2c1` the “activity, negative = inhibition” value was inactive: 2.39%. In the case of `Cc1[nH]c2ccccc2c1C(=O)/C=C/c1ccccc1`, the Potency is reported as inconclusive: 22.4 µM [inhibitor, single point]. For `Cc1nnc(NC(=O)CSc2nnc3scc(-c4ccc(C)c(C)c4)n23)s1`, the “activity, negative = inhibition” value was inactive: -3.75%. With `C/C(=N/Nc1nc(-c2ccccc2F)nc2ccccc12)c1ccccc1O` the Potency was active: 12.6 µM. In the case of `Cc1cccc(N2CCN(C(=O)CS(=O)(=O)Cc3nc(-c4ccccc4C)oc3C)CC2C)c1` (stereo not given), the Potency is reported as active: 11.2 µM. In the case of `CC1(C)Cc2c(c(N3CCOCC3)nc3sc4c(NCc5ccco5)nnnc4c23)CS1`, the “activity, negative = inhibition” value is reported as inactive: 0%. In the case of `CCc1ccc(S(=O)(=O)c2nnn3c2nc(Nc2ccc(NC(C)=O)cc2)c2sccc23)cc1`, the “activity, negative = inhibition” value is reported as inactive: 0.803%. With `CCOc1ccc(N(Cc2ccccc2)C(=O)c2nc(S(C)(=O)=O)ncc2Cl)cc1` the Potency was active: 3.98 µM. With `CC(C)(C)c1cc(C(=O)NNc2cccc(Cl)c2)n(Cc2ccccc2)n1` the Potency was inconclusive: 22.4 µM [inhibitor, single point]. For `COc1ccc(-c2cc(=O)c3c(O)cc(O)cc3o2)cc1`, the Potency was active: 10 µM. With `CN(Cc1ccccc1)C(=O)c1ccc(Cl)c([N+](=O)[O-])c1` the “activity, negative = inhibition” value was inactive: -10.6%. For `COc1ccc(NC(=O)NNC(=O)C(C)Oc2ccc(C(C)C)cc2)c(OC)c1` (stereo not given), the Potency was inconclusive: 20 µM [inhibitor, single point]. With `CN(C)C(=O)C1C2NC(=S)N(c3cccc(Cl)c3)C1(C)Oc1ccc(Cl)cc12` (stereo not given) the “activity, negative = inhibition” value was inactive: -2.48%. For `CCN(CCNC(=O)CC1Oc2ccccc2NC1=O)c1ccccc1` (stereo not given), the Potency was inconclusive: 2.24 µM [inhibitor, full curve, poor fit]. For `CCSc1cnc(-c2ccccc2)n1CC`, the “activity, negative = inhibition” value was inactive: -0.179%. With `CCCCCc1cc(=O)oc2c(C(CCN3CCCC(C)C3)c3ccc4c(c3)OCO4)c(OC)cc(OC)c12` (stereo not given) the Potency was inconclusive: 22.4 µM [inhibitor, single point]. In the case of `CCOC(=O)N1CCN(C(=O)CSc2nc3c([nH]c4ccccc43)c(=O)n2CC)CC1`, the Potency is reported as inconclusive: 35.5 µM [inhibitor, single point]. In the case of `CCOc1ccc(CSC(=N)N)cc1Cl`, the Potency is reported as inconclusive: 31.6 µM [inhibitor, single point]. With `COc1ccc(Nc2sc(C(=O)c3ccc(Cl)cc3)c(N)c2C(=O)Nc2ccccc2OC)cc1` the Potency was inconclusive: 35.5 µM [inhibitor, single point]. For `CC(=O)Nc1ccc(C(=O)Nc2ccc(S(=O)(=O)N3CCCCC3)cc2)cc1`, the Potency was inconclusive: 6.31 µM [inhibitor, single point]. With `CCCc1sc(N2CCCC(C(N)=O)C2)nc1-c1ccccc1` (stereo not given) the Potency was inconclusive: 14.1 µM [inhibitor, single point]. For `CCCCNC(C(=O)Nc1ccc(Cl)c([N+](=O)[O-])c1)c1ccccc1` (stereo not given), the Potency was inconclusive: 35.5 µM [inhibitor, single point]. With `Cc1cc(NC(=O)CCNS(=O)(=O)c2cccc3nsnc23)ccc1Br` the Potency was inconclusive: 12.6 µM [inhibitor, partial curve]. For `COc1cc(/C=C2\SC(=O)NC2=O)ccc1Oc1ccc([N+](=O)[O-])cc1[N+](=O)[O-]`, the Potency was inconclusive: 25.1 µM [inhibitor, partial curve, poor fit]. In the case of `Cc1ccc(NC(=O)c2ccccc2Br)c(C(=O)c2ccccc2)c1`, the Potency is reported as inconclusive: 10 µM [inhibitor, partial curve, poor fit]. In the case of `COCCCN(C(=S)Nc1cc(Cl)cc(Cl)c1)C(C)c1ccncc1` (stereo not given), the Potency is reported as inconclusive: 22.4 µM [inhibitor, single point]. With `COc1cc(C(=O)Nc2ccc(NC(=O)c3ccccc3)nc2)cc(OC)c1OC` the Potency was inconclusive: 35.5 µM [inhibitor, single point]. In the case of `COc1ccc(OC)c2nc(-c3ccc4c(c3)OCO4)ccc12`, the “activity, negative = inhibition” value is reported as inactive: -1.32%. With `c1ccc(C(NCCNC(c2ccccc2)c2ccccc2)c2ccccc2)cc1` the Potency was inconclusive: 15.8 µM [inhibitor, single point]. With `COc1ccc(CNC(=O)c2ccc3nc(-c4ccc(F)cc4)c(-c4ccc(F)cc4)nc3c2)cc1` the “activity, negative = inhibition” value was inactive: -5.52%. For `CCC1(C)Cc2c(sc3nc(SC)n(-c4ccc(C)cc4)c(=O)c23)CO1` (stereo not given), the Potency was inconclusive: 1.58 µM [inhibitor, partial curve, poor fit]. For `CCC(=O)NC(=S)Nc1ccccc1C(F)(F)F`, the Potency was inconclusive: 35.5 µM [inhibitor, single point]. With `Cc1ccc(-c2nc(N)n(C(=O)c3cccs3)n2)cc1` the Potency was inconclusive: 35.5 µM [inhibitor, single point]. For `CCCn1cc(S(=O)(=O)c2ccc(C)cc2)c(=O)c2cc(F)c(N3CCCC3)cc21`, the “activity, negative = inhibition” value was inactive: -7.79%. With `CN1C(=O)[C@H]2[C@@H](/C=C/c3ccccc3)N3C(=O)CN(Cc4ccc(-c5ccccc5)cc4)C(=O)[C@@]3(Cc3ccccc3)[C@H]2C1=O` the Potency was inconclusive: 12.6 µM [inhibitor, partial curve, poor fit]. For `C=CCNC(=S)N/N=C/c1ccc(C(F)(F)F)cc1`, the Potency was inconclusive: 5.01 µM [inhibitor, full curve]. For `CC1CN(C(=O)N2CCC(C(=O)NCCCc3ccccc3)CC2)c2cc(Cl)ccc2O1` (stereo not given), the Potency was active: 14.1 µM. In the case of `CC1(C)CC(=O)C=C(C#CC2(O)CCCCC2)C1`, the Potency is reported as inconclusive: 20 µM [inhibitor, single point]. In the case of `COC(=O)[C@@H](NC(=O)N1CCN(c2cccc(C(F)(F)F)c2)CC1)C(C)C`, the “activity, negative = inhibition” value is reported as inactive: 0%. For `C[C@@H]1Cn2cnc(C(=O)Nc3ccccc3)c2C(=O)N1`, the Potency was inconclusive: 35.5 µM [inhibitor, single point]. For `CC(=O)Nc1cccc(NC(=O)c2cc3c(=O)n4cccc(C)c4nc3n2C)c1`, the “activity, negative = inhibition” value was inactive: -15.5%. For `FC(F)(F)c1cc(-c2ccco2)nc(N2CCOCC2)n1`, the Potency was inconclusive: 35.5 µM [inhibitor, single point]. With `COc1cccc(CNC(=O)C2CCN(S(=O)(=O)N3CC(C)CC(C)C3)CC2)c1` (stereo not given) the Potency was inconclusive: 35.5 µM [inhibitor, partial curve, poor fit]. In the case of `C=CCSc1nc2ccccc2n1C(=O)/C=C/c1cc(OC)c(OC)c(OC)c1`, the Potency is reported as inconclusive: 0.562 µM [inhibitor, full curve, poor fit]. With `Cn1cccc1C(=O)C(=O)Nc1cc(Cl)cc(Cl)c1` the “activity, negative = inhibition” value was inactive: -30.4%. With `CN(C)CCNC(=O)c1sc2nc(-c3ccccc3)cc(C(F)(F)F)c2c1N` the Potency was inconclusive: 35.5 µM [inhibitor, single point]. With `CC(=O)c1cc(-c2ccccc2)n(CC(=O)Nc2cccc(C)c2C)c1C` the “activity, negative = inhibition” value was inactive: 1.56%. With `Cc1nc(C)c(-c2ccc(SCC(=O)Nc3ccccc3)nn2)s1` the “activity, negative = inhibition” value was inactive: -26.1%. For `Cc1ccc(S(=O)(=O)N2C[C@@H](C)[C@]3(C2)[C@H](O)[C@H](OC(=O)NC2CC2)C[C@H]2C(=O)N(c4ccccc4)C(=O)[C@H]23)cc1`, the Potency was inconclusive: 12.6 µM [inhibitor, single point]. For `Cc1ccc(NC(=O)C2CCCN(S(=O)(=O)c3ccc4[nH]c(=O)ccc4c3)C2)cc1Cl` (stereo not given), the Potency was inconclusive: 7.94 µM [inhibitor, partial curve]. For `CCOc1ccc(Br)cc1S(=O)(=O)Nc1ccc(N2CCOCC2)cc1`, the “activity, negative = inhibition” value was inactive: -0.999%. In the case of `Clc1cc(Br)ccc1OCCOCCOc1cccc2cccnc12`, the Potency is reported as inconclusive: 22.4 µM [inhibitor, partial curve, poor fit]. With `O=C(/C=C/c1ccc(Cl)cc1)N1CCN(c2ccc(Cl)cc2[N+](=O)[O-])CC1` the Potency was inconclusive: 35.5 µM [inhibitor, single point]. In the case of `CC(=O)c1cccc(NC(=O)C2CC(=O)N(C3CCCC3)C2)c1` (stereo not given), the “activity, negative = inhibition” value is reported as inactive: 7.26%. For `Fc1ccc(N2CCN(c3nc4ccccc4c4nc(-c5ccccc5)nn34)CC2)cc1`, the “activity, negative = inhibition” value was inactive: 2.39%. With `Cc1ccc(Oc2ncnc3sccc23)cc1` the Potency was inconclusive: 31.6 µM [inhibitor, single point]. In the case of `CC(C)(C)C(=O)Nc1ccc(C(=O)OC2CCCCC2)cc1`, the “activity, negative = inhibition” value is reported as inactive: 0.396%. With `CC(C)CC(CSc1ccc(Br)cc1)N1CCN(CC(C)C)CCC1=O` (stereo not given) the Potency was inconclusive: 3.16 µM [inhibitor, partial curve, poor fit]. With `Cc1ccc(Cn2nnc3c(=O)[nH]c(C4CCN(C(=O)Cc5ccccc5F)CC4)nc32)cc1` the Potency was inconclusive: 17.8 µM [inhibitor, single point]. For `CCC1(C)CC(CCN(Cc2ccco2)C(C)=O)(c2ccccc2)CCO1` (stereo not given), the Potency was inconclusive: 11.2 µM [inhibitor, partial curve, poor fit]. With `CCCCCC(O)(c1ccc(OC)cc1)C(CN1CCOCC1)c1ccccc1` (stereo not given) the Potency was active: 12.6 µM. In the case of `Cc1c(C#N)c(NC(=O)CCl)n(Cc2cccs2)c1C`, the Potency is reported as active: 12.6 µM. With `O=C(Nc1ccc(Nc2ccccc2)cc1)c1ccc(Br)o1` the Potency was inconclusive: 1.12 µM [inhibitor, full curve, poor fit]. In the case of `O=C(CNC(=S)N(CCCN1CCOCC1)Cc1cccs1)NCc1ccc(Cl)cc1`, the Potency is reported as inconclusive: 17.8 µM [inhibitor, single point]. In the case of `CCc1nnc2sc(-c3ccc(NC(=O)c4ccco4)cc3)nn12`, the “activity, negative = inhibition” value is reported as inactive: -3.32%. With `CN(C)c1ccc(/C=C2/C[N+](C)(C)C/C(=C/c3ccc(N(C)C)cc3)C2=O)cc1` the “activity, negative = inhibition” value was inactive: 0.0743%. In the case of `O=C(Nc1ncc(Br)s1)C(Cc1ccccc1)n1cccc1` (stereo not given), the Potency is reported as inconclusive: 22.4 µM [inhibitor, single point].
